Test results reported in publication PMC6919601, “Identification of Plasmodium dipeptidyl aminopeptidase allosteric inhibitors by high throughput screening” (PLoS ONE, 2019).
About 230 (0.21%) of roughly 110,000 compounds showed an effect of 50% or more. This is one part of the list.

target: DPAP1 (Plasmodium falciparum, UniProt Q8IIJ9); experiment: primary screen, percent inhibition; read by cleavage of a fluorogenic dipeptide substrate; higher = more effect of the substance; design: species or system P. falciparum D10 trophozoite lysates; single well
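Note: 30 min substrate incubation versus DMSO and 10 µM JCP410 controls.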

DPAP1, sequence (Q8IIJ9 whole entry, looked up): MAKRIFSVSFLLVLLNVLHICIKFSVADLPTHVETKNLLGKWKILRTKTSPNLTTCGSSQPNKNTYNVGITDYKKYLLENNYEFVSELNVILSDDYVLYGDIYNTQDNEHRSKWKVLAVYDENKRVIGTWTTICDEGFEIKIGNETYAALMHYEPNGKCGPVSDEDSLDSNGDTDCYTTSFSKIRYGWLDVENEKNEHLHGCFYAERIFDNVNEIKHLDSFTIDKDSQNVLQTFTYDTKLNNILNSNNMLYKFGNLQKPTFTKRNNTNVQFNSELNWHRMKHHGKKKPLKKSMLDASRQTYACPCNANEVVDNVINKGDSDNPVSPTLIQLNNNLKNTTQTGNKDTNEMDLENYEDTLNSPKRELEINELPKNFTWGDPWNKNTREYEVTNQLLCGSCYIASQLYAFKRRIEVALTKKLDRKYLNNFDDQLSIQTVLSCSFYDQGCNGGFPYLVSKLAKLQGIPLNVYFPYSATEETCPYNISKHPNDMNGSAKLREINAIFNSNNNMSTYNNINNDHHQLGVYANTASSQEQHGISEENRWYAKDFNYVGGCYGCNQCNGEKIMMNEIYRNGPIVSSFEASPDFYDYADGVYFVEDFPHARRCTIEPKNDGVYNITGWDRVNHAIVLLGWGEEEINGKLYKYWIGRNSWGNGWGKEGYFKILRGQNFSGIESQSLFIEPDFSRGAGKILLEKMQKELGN

Q: `Cn1c2c(c(=O)n(C)c1=O)C(c1ccsc1)C1=C(O)c3ccccc3C1=N2` (stereo not shown) was tested. Which “% Inhibition @ 10 uM” value did it give?
A: Its value is 5.65%.

Q: How did the “% Inhibition @ 10 uM” value turn out when `Cc1c(C(=O)NCc2ccc(F)cc2)oc2ccc(S(=O)(=O)N3CCCCCC3)cc12` was run?
A: Its value is 5.5%.

Q: Which “% Inhibition @ 10 uM” value does the source give for `O=C(CSc1nnc2sc3ccccc3n12)N1N=CCC1c1ccccc1` (stereo not shown) here?
A: Its value is 0.564%.

Q: `CCC(C(=O)Nc1nc2nc(C)cc(O)n2n1)c1ccccc1` (stereo not shown) was tested. Which “% Inhibition @ 10 uM” value did it give?
A: The value was 0.401%.

Q: With `NS(=O)(=O)c1ccc2c(O)cc(S(N)(=O)=O)cc2c1` as the compound, how does the “% Inhibition @ 10 uM” value read?
A: The value was -6.21%.

Q: `Cc1ccc(NCN2C(=O)C3CC=CCC3C2=O)cc1` (stereo not shown) was tested. Which “% Inhibition @ 10 uM” value did it give?
A: The value was 14.2%.

Q: `CC(C)NC(C)C(O)c1ccc2ccccc2c1` (stereo not shown) was tested. Which “% Inhibition @ 10 uM” value did it give?
A: Its value is -0.505%.

Q: With `O=c1c2c([nH]c(=S)n1C1CCCC1)-c1ccccc1CC21CCCCC1` as the compound, how does the “% Inhibition @ 10 uM” value read?
A: Its value is 2.81%.

Q: For `CCCN(CCC)CCCn1cnc2c3cc(F)ccc3nc-2c1O`, which “% Inhibition @ 10 uM” value is on record?
A: The value was -1.74%.

Q: Which “% Inhibition @ 10 uM” value does the source give for `c1ccc2c(CN3CCSCC3)ccnc2c1` here?
A: Its value is 0.472%.

Q: For `CCNC(=O)c1cc(-c2cccc(C)c2)nc2ccccc12`, which “% Inhibition @ 10 uM” value is on record?
A: The value was 0.528%.

Q: Which “% Inhibition @ 10 uM” value does the source give for `COc1cc(C=C2C(=O)N(C)C(=O)N(C)C2=O)ccc1Oc1c(F)c(F)c(F)c(F)c1F` here?
A: The value was 2.8%.

Q: How did the “% Inhibition @ 10 uM” value turn out when `O=C(CN1C(=O)S/C(=C/c2cccc(O)c2)C1=O)Nc1ccccc1` was run?
A: Its value is 2.22%.

Q: Which “% Inhibition @ 10 uM” value does the source give for `COc1ccc(OCCCN2CCC(Cc3ccccc3)CC2)cc1` here?
A: The value was -1.82%.

Q: For `CCN(c1ccccc1)S(=O)(=O)c1ccc(F)cc1`, which “% Inhibition @ 10 uM” value is on record?
A: The value was 3.48%.

Q: For `CN1C(=O)CN=C(c2ccc(Cl)cc2)c2cc(Cl)ccc21`, which “% Inhibition @ 10 uM” value is on record?
A: The value was 0.843%.

Q: `COc1ccc(C2NC(=O)c3c(sc4c3CCCC4)N2)cc1Cl` (stereo not shown) was tested. Which “% Inhibition @ 10 uM” value did it give?
A: The value was 2.86%.

Q: With `Cc1cc(NC(=O)CN2CCN(C(=O)c3ccco3)CC2)nc2c1c(=O)oc1ccccc12` as the compound, how does the “% Inhibition @ 10 uM” value read?
A: Its value is -3.87%.

Q: `CCN(CC)c1c(S(=O)(=O)c2ccccc2)cnc2ccc(F)cc12` was tested. Which “% Inhibition @ 10 uM” value did it give?
A: Its value is -6.07%.

Q: `CCOC(=O)c1cc(-c2ccc(C)cc2)n(CC(=O)NCC2CCCO2)c1C` (stereo not shown) was tested. Which “% Inhibition @ 10 uM” value did it give?
A: Its value is 4.88%.

Q: For `CCC(C)c1ccc(NS(=O)(=O)c2cc(Cl)ccc2Cl)cc1` (stereo not shown), which “% Inhibition @ 10 uM” value is on record?
A: The value was 3%.

Q: How did the “% Inhibition @ 10 uM” value turn out when `Cc1nc2nc(CNC(=O)OC(C)(C)C)nn2c(C)c1CCC(=O)NCc1ccccc1` was run?
A: Its value is 1.22%.

Q: With `Cc1cccc(NC(=O)COc2ccc(C(C)(C)C)cc2)n1` as the compound, how does the “% Inhibition @ 10 uM” value read?
A: Its value is 4.66%.

Q: How did the “% Inhibition @ 10 uM” value turn out when `CCCN(CCC)C(=O)Cn1ncc2c3ccccc3n(C)c2c1=O` was run?
A: The value was -0.23%.

Q: For `CCOC(=O)N1CCN(C/C(C)=C/c2ccccc2)CC1`, which “% Inhibition @ 10 uM” value is on record?
A: Its value is -1.78%.

Q: `COc1ccc(C2C(C#N)=C(N)OC3=C2C(=O)CCC3)cc1COc1ccc(C)cc1` (stereo not shown) was tested. Which “% Inhibition @ 10 uM” value did it give?
A: The value was 3.19%.

Q: For `O=C(O)C1CCCCC1C(=O)N1CCN(c2ccc(F)cc2)CC1` (stereo not shown), which “% Inhibition @ 10 uM” value is on record?
A: Its value is -2.17%.

Q: For `Cc1cc(C)cc(OCC(O)CN2CCN(c3ccccc3F)CC2)c1` (stereo not shown), which “% Inhibition @ 10 uM” value is on record?
A: Its value is -5.35%.

Q: `CS(=O)(=O)NCc1csc(-c2ccccc2)n1` was tested. Which “% Inhibition @ 10 uM” value did it give?
A: Its value is -0.72%.

Q: For `CCCCNc1cc(C)oc(=O)c1C(C)=O`, which “% Inhibition @ 10 uM” value is on record?
A: Its value is 0.708%.

Q: How did the “% Inhibition @ 10 uM” value turn out when `COc1ccc(N2C(=O)CC(NC3CCCCCCC3)C2=O)cc1` (stereo not shown) was run?
A: The value was 31.4%.

Q: `CCOC(=O)N1CCN(CC(O)COc2ccccc2C(C)CC)CC1` (stereo not shown) was tested. Which “% Inhibition @ 10 uM” value did it give?
A: Its value is 3.66%.

Q: Which “% Inhibition @ 10 uM” value does the source give for `C[C@@H](C[C@H](NC(=O)c1ccc(-c2ccccc2Cl)cc1)C(=O)NCC#N)c1ccccc1` here?
A: The value was -3.14%.

Q: `Cc1cccc(-n2c(CNC(=O)COc3ccccc3)nnc2SCC(=O)Nc2nccs2)c1` was tested. Which “% Inhibition @ 10 uM” value did it give?
A: The value was -5.17%.

Q: How did the “% Inhibition @ 10 uM” value turn out when `CCOc1cc(C(=O)NCCSc2c[nH]c3ccccc23)cc(OCC)c1OCC` was run?
A: Its value is -0.228%.

Q: Which “% Inhibition @ 10 uM” value does the source give for `O=C(CCc1ccc(S(=O)(=O)NCc2ccccc2)cc1)N1CCN(c2ccccc2F)CC1` here?
A: Its value is 0.389%.

Q: `O=C(NCCCN1CCCC1=O)C1CCN(S(=O)(=O)N2CCOCC2)CC1` was tested. Which “% Inhibition @ 10 uM” value did it give?
A: Its value is 0.718%.

Q: `CN(C)CCNC1CCCCCCC1` was tested. Which “% Inhibition @ 10 uM” value did it give?
A: The value was 3.48%.

Q: Which “% Inhibition @ 10 uM” value does the source give for `COc1cc(S(=O)(=O)N2CCN=C2c2ccccc2)c(OC)cc1Br` here?
A: Its value is 0.245%.

Q: Which “% Inhibition @ 10 uM” value does the source give for `CCc1ccc(C2=NN(CCC(=O)NCCCOC(C)C)C(=O)CC2)cc1` here?
A: The value was -0.971%.

Q: How did the “% Inhibition @ 10 uM” value turn out when `C=CCc1ccccc1OCCSc1nc(-c2ccco2)nc2cc(=O)[nH]n12` was run?
A: The value was -2.48%.

Q: How did the “% Inhibition @ 10 uM” value turn out when `CCCCOc1ccc(C(C)NC(=O)C2CC(=O)N(CCc3ccc(C)cc3)C2)cc1` (stereo not shown) was run?
A: Its value is -1.79%.

Q: `Cc1ccc(N2C(=O)C3C4C=CC(C4)C3C2=O)cc1Br` (stereo not shown) was tested. Which “% Inhibition @ 10 uM” value did it give?
A: Its value is 10.1%.

Q: `CSCC[C@@H](C(=O)NCc1cccc(C(C)=O)c1)N1Cc2ccccc2C1=O` was tested. Which “% Inhibition @ 10 uM” value did it give?
A: Its value is -4.1%.

Q: Which “% Inhibition @ 10 uM” value does the source give for `O=C1C2C3CCC(C3)C2C(=O)N1Cc1ccc(F)cc1` (stereo not shown) here?
A: The value was 9.86%.

Q: How did the “% Inhibition @ 10 uM” value turn out when `CN1C(=O)C(=CNc2ccccc2Br)C(=O)N(C)C1=O` was run?
A: Its value is -2.87%.

Q: With `Cc1nc2ccc(Br)cc2c2c1CC(C)S2` (stereo not shown) as the compound, how does the “% Inhibition @ 10 uM” value read?
A: The value was -2.89%.

Q: How did the “% Inhibition @ 10 uM” value turn out when `Cc1onc(-c2ccccc2)c1C(=O)N1CCN(c2cccc(C(F)(F)F)c2)CC1` was run?
A: Its value is -1.55%.

Q: `CC(C)CC(C(=O)NCC#N)c1cccc(-c2csc(N3CCN(CCO)CC3)n2)c1` (stereo not shown) was tested. Which “% Inhibition @ 10 uM” value did it give?
A: Its value is -8.26%.

Q: How did the “% Inhibition @ 10 uM” value turn out when `Cc1ccc(N2C(=O)C3C4CCC(C4)C3C2=O)cc1Cl` (stereo not shown) was run?
A: The value was -1.2%.

Q: `CC(C)CCNC(=O)c1ccc(CS(=O)c2cccc(Cl)c2)o1` (stereo not shown) was tested. Which “% Inhibition @ 10 uM” value did it give?
A: Its value is 3.62%.

Q: `CCCCCc1nnc(NC(=O)c2ccccc2Cl)s1` was tested. Which “% Inhibition @ 10 uM” value did it give?
A: The value was 0.997%.

Q: How did the “% Inhibition @ 10 uM” value turn out when `COc1ccc2cc3c(N)nn(C(=O)Cc4ccccc4OC)c3nc2c1` was run?
A: The value was -3.06%.

Q: Which “% Inhibition @ 10 uM” value does the source give for `CCCc1cc(O)n2nc(C)c(-c3ccc(OC)cc3)c2n1` here?
A: Its value is -0.267%.

Q: For `Cc1ccc(CNC(=O)c2cccc3c2C(=O)N(C2CCCCC2)C3)cc1`, which “% Inhibition @ 10 uM” value is on record?
A: The value was 2.9%.

Q: How did the “% Inhibition @ 10 uM” value turn out when `Cc1cccc(NC(=O)c2cccc(S(=O)(=O)NCc3ccccc3)c2)c1` was run?
A: The value was -3.66%.

Q: With `CN1CCN(CCNC(=O)Cn2ncc3c4ccccc4n(Cc4ccc(F)cc4)c3c2=O)CC1` as the compound, how does the “% Inhibition @ 10 uM” value read?
A: The value was -7.1%.

Q: How did the “% Inhibition @ 10 uM” value turn out when `Cn1c(=O)[nH]c2nnc(-c3ccccc3)nc2c1=O` was run?
A: Its value is -2.85%.

Q: With `O=C(Nc1ccccc1OC(F)F)c1cccc(OC(F)F)c1` as the compound, how does the “% Inhibition @ 10 uM” value read?
A: The value was -5.6%.

Q: For `COc1ccc(C=C2C(=O)NC(=S)NC2=O)cc1Br`, which “% Inhibition @ 10 uM” value is on record?
A: Its value is 0.927%.

Q: How did the “% Inhibition @ 10 uM” value turn out when `COc1ccc(-n2c(=S)[nH]c3sc4c(c3c2=O)CCCCC4)cc1` was run?
A: Its value is 12.4%.

Q: For `Cc1cc(C)c(C(=O)CSc2nc(C)cc(C)n2)c(C)c1`, which “% Inhibition @ 10 uM” value is on record?
A: Its value is 5.51%.

Q: Which “% Inhibition @ 10 uM” value does the source give for `CN(C(=O)c1cc2c(s1)-c1ccccc1OC2)C1CCCCC1` here?
A: The value was 0.291%.

Q: How did the “% Inhibition @ 10 uM” value turn out when `Cc1ccc(S(=O)(=O)c2cc3c(=O)n4cccc(C)c4nc3n(CCN3CCOCC3)c2=N)cc1` was run?
A: The value was -1.52%.
